This is an account of results in the supplement of paper PMC10441789.

The list shows a part of the results. Antibody binding of pooled human sera (four to six donors per pool; dilution not stated) to peptides of the Trypanosoma cruzi antigen TSSA on microarrays. Quantile-normalised fluorescence in arbitrary units, mean of duplicate arrays; higher = more binding. No active / inactive call. The uninfected pools are read here as the healthy donors of the same country. The strongest signals lie near the top of the scale (about 60,000).

The first assay relates to pooled sera of chronic Chagas disease patients, Argentina. Put plainly: antibody binding signal (normalised fluorescence) (arbitrary fluorescence units); higher = stronger serum antibody binding to peptide. The protocol:
(§1)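 Microarray of 15-residue peptides over residues 30-55 of Trypanosoma cruzi TSSAII, each with 1 to 10 substitutions at naturally variable positions, probed with one serum pool per country.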
In the case of DNKTATGEAPSQPGA, the antibody binding signal is 15300.
On the same count and under the same terms, the result for TDKKAAAGETPSPPG reads 780; that for PPSGTEKKAAAGETP, 26800.
For the sequence TISTPPSGTEKKAAT, the antibody binding signal amounted to 31200.
Regarding SGTDNKPATGEAPSQ, the antibody binding signal stood at 39200.
For the sequence SGKDNKAATGEAPSQ, the antibody binding signal came to 24800.
On the same count and under the same terms, the result for GKDKKTAAGEAPSQS reads 539.
Sequence KKTATGEAPSPSGAS came in with an antibody binding signal of 1780.
On the same count and under the same terms, to ISTPPSGTENKAAAG belongs 54300; to GTEKKPATGEAPSPS, 43900; to ENKTATGETPSPPGA, 408.
Same read-out and setting: the result for KDKKAATGEAPSQSG reads 10000; that for SGTDNKAAAGGTPSP, 258; that for TDNKAAAGETPSQPG, 2380.
Still for that read-out and setting: to PPSGTENKAATGGAP belongs 46400; to GKDNKAAAGEAPSQS, 8490.
In turn, PPSGTDNKPATGGAP gave an antibody binding signal of 29800.
Same read-out and setting: to PSGKEKKAAAGGTPS belongs 5440; to TDKKTAAGEAPSQSG, 591.
Still for that read-out and setting: to KAAAGETPSQPGASS belongs 2010.
The same measure, in the same setting: to TDKKAAAGGTPSQPG belongs 1100; to NKTATGEAPSPPGAS, 5320; to ENKPAAGETPSQPGA, 1850.
PSGKDNKTATGGAPS gave an antibody binding signal of 2460.
KKAAAGGAPSQSGAS registered an antibody binding signal of 197.
Sequence DNKAAAGGTPSPPGA yielded an antibody binding signal of 301.
TEKKAAAGGTPSQSG registered an antibody binding signal of 784.
The sequence TEKKPATGGAPSPSG showed an antibody binding signal of 3510.
The sequence KPAAGGTPSQSGASS had an antibody binding signal of 160.
On the same count and under the same terms, to GKEKKTATGGAPSQP belongs 2470; to ISTPPSGKDNKAAAG, 18100.
On the same count and under the same terms, to GKENKAAAGEAPSPP belongs 5150; to KAAAGETPSPPGASS, 320.
In turn, KEKKTAAGEAPSPSG displayed an antibody binding signal of 156.
For EKKTATGETPSQSGA, the antibody binding signal is 1020.
For TEKKTAAGGAPSQSG, the antibody binding signal amounted to 764.
The same measure, in the same setting: the result for DNKTAAGEAPSPPGA reads 366; that for DKKPAAGETPSQPGA, 908.
On the same count and under the same terms, to GKDKKTATGGTPSPS belongs 447; to GKDKKPATGETPSPP, 27200.

The subject of another assay is pooled sera of chronic Chagas disease patients, Bolivia. Described as above. Here is the method: as §1
Turning to DNKTATGEAPSQPGA, the antibody binding signal came out at 35500.
In turn, TDKKAAAGETPSPPG came in with an antibody binding signal of 298.
On the same count and under the same terms, to PPSGTEKKAAAGETP belongs 11200; to TISTPPSGTEKKAAT, 2390.
For the sequence SGTDNKPATGEAPSQ, the antibody binding signal was found to be 47200.
Still for that read-out and setting: to SGKDNKAATGEAPSQ belongs 24300; to GKDKKTAAGEAPSQS, 1580; to KKTATGEAPSPSGAS, 4220.
The sequence ISTPPSGTENKAAAG came in with an antibody binding signal of 47800.
Consider GTEKKPATGEAPSPS, for which the antibody binding signal amounted to 46700.
ENKTATGETPSPPGA showed an antibody binding signal of 1750.
Still for that read-out and setting: to KDKKAATGEAPSQSG belongs 11200.
The sequence SGTDNKAAAGGTPSP displayed an antibody binding signal of 243.
On to TDNKAAAGETPSQPG, for which the antibody binding signal was 3600.
Turning to PPSGTENKAATGGAP, the antibody binding signal is 36100.
GKDNKAAAGEAPSQS had an antibody binding signal of 16700.
PPSGTDNKPATGGAP returned an antibody binding signal of 43300.
Still for that read-out and setting: the result for PSGKEKKAAAGGTPS reads 976; that for TDKKTAAGEAPSQSG, 12000; that for KAAAGETPSQPGASS, 3370.
Still for that read-out and setting: to TDKKAAAGGTPSQPG belongs 221; to NKTATGEAPSPPGAS, 29900; to ENKPAAGETPSQPGA, 5800.
Same read-out and setting: to PSGKDNKTATGGAPS belongs 854.
KKAAAGGAPSQSGAS yielded an antibody binding signal of 238.
In the case of DNKAAAGGTPSPPGA, the antibody binding signal was 254.
Still for that read-out and setting: to TEKKAAAGGTPSQSG belongs 206; to TEKKPATGGAPSPSG, 1250.
KPAAGGTPSQSGASS showed an antibody binding signal of 211.
In the case of GKEKKTATGGAPSQP, the antibody binding signal amounted to 267.
On the same count and under the same terms, to ISTPPSGKDNKAAAG belongs 1290; to GKENKAAAGEAPSPP, 1060.
KAAAGETPSPPGASS: the antibody binding signal worked out at 295.
Same read-out and setting: to KEKKTAAGEAPSPSG belongs 228; to EKKTATGETPSQSGA, 799.
TEKKTAAGGAPSQSG showed an antibody binding signal of 1540.
Still for that read-out and setting: to DNKTAAGEAPSPPGA belongs 360; to DKKPAAGETPSQPGA, 1650.
On the same count and under the same terms, to GKDKKTATGGTPSPS belongs 229.
GKDKKPATGETPSPP displayed an antibody binding signal of 4230.
